From paper PMC4336329 (PLoS ONE, 2015)
The whole screen tested about 310,000 compounds, of which about 14,000 (4.5%) showed an effect of 50% or more. Effects have a minus sign here. This is one part of the list.

Molecular target: human ether-à-go-go-related gene (hERG) potassium channel (human, UniProt Q12809)
Test: primary screen, population patch clamp on CHO cells stably expressing hERG
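Also: peak tail current of the secondary pulse compared with the same well before compound.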

Sequence of human ether-à-go-go-related gene (hERG) potassium channel (Q12809 whole entry, looked up): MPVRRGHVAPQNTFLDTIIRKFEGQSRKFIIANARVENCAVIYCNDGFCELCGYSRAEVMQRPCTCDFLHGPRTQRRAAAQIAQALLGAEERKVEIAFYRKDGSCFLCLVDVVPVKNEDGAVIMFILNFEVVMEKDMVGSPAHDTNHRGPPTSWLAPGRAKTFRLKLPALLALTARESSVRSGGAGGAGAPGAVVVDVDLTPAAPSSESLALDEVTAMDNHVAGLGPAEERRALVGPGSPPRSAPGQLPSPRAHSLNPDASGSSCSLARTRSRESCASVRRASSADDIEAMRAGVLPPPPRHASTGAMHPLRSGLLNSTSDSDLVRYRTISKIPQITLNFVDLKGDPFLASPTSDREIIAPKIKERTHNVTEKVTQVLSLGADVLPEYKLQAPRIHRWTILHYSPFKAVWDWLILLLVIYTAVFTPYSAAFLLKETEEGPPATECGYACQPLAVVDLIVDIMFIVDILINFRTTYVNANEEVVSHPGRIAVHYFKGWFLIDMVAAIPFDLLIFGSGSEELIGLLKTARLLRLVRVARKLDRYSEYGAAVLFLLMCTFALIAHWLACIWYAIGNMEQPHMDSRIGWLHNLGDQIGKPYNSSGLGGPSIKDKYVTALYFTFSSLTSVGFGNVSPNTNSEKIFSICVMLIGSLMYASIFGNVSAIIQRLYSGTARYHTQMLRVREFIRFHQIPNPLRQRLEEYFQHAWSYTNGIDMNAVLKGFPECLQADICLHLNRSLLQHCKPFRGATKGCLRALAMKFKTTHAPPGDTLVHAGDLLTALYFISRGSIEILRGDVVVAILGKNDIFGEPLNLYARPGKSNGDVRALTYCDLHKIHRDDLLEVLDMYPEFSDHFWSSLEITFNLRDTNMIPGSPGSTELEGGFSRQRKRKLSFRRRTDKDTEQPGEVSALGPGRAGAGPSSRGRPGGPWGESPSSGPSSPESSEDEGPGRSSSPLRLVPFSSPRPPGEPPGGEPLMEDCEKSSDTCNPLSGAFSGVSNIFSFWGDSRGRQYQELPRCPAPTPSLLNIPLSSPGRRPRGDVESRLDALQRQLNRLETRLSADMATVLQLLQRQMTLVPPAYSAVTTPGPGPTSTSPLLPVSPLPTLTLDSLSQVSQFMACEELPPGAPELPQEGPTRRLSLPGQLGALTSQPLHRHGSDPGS

Point of comparison: O=C(CN1C(=O)/C(=C/c2ccccc2)SC1=S)N1CCN(CCc2ccccn2)CC1, “hERG current change (%, negative = inhibition) at 10uM” value -15.7%. Against it:
- CCOc1cc(CNn2cnnc2)cc(Cl)c1OCC(=O)NC(C)(C)C — higher, 5.17%
- COc1cc(Br)ccc1NC(=O)c1ccccc1-c1ccccc1C(=O)O — higher, 14%
- Cc1cc(Cl)ccc1OCCCC(=O)OCC(N)=O — higher, -3.29%
- O=c1c(Cl)c(N2CCCCC2)cnn1-c1nc2ccccc2[nH]1 — lower, -47.8%
- C/C(=N\NC(=O)c1nnn(-c2nonc2N)c1C(C)C)c1cc(C)sc1C — higher, 10.2%
- Cc1ccc(S(=O)(=O)N(C)c2ccc(C(=O)NCC3(N(C)C)CCCCC3)cc2)cc1 — lower, -65.4%
- COc1ccccc1C(=O)Nc1ccon1 — higher, -4.26%
- COCCn1c(-c2ccc(Cl)cc2Cl)nc2c(c(=O)c3ccccc3n2C)c1=O — higher, -8.66%
- O=C(CN(CC1CCCO1)S(=O)(=O)c1ccc(S(=O)(=O)NC2CC2)cc1)Nc1ccccc1 (stereo not shown) — lower, -41.9%
- CSc1ccccc1OCc1cc(C(=O)N2CCN(c3ncccn3)CC2)no1 — lower, -19.6%
- Cc1cccc(Nc2ncnc3c2cnn3C)c1 — lower, -28.1%
- CC(=O)COc1c(-c2ccco2)oc2ccccc2c1=O — higher, 4.55%
- COC(=O)c1cccc(NC(=O)c2nn(C)c(=O)c3ccccc23)c1 — higher, -14.5%
- CCC1CCCCN1CCCNC(=O)C1CCN(S(=O)(=O)N2CCCCC2)CC1 (stereo not shown) — higher, -6.14%
- CC(NCc1ccc(Cl)cc1)C(O)c1ccccc1.Cl (stereo not shown) — higher, 0.613%
- CCCCNS(=O)(=O)c1cc2c3c(c1)CCN3C(=O)CC2 — higher, 4.12%
- COc1ccc(N2CCN(C(=O)c3cccc(Br)c3)CC2)c([N+](=O)[O-])c1 — lower, -87.1%
- Cn1c(=O)oc2cc(S(=O)(=O)NCCC(=O)N3CCN(c4ccccc4)CC3)ccc21 — higher, 7.95%
- O=C(Nc1ccc(S(=O)(=O)Nc2ncccn2)cc1)C1=NN(c2ccccc2)C(=O)CC1 — higher, 0.606%
- Cc1ccc(/C=N/NC(=O)CSc2nnc(-c3ccc(Cl)cc3)n2-c2ccc(Cl)cc2)o1 — higher, -9.79%
- CCCCn1c(SCC(=O)OCC)nc2c(sc(=S)n2-c2ccccc2OC)c1=O — higher, -5.13%
- Cc1cc(C)n2cc(CSCC(=O)O)nc2n1 — higher, 19.6%
- O=C(O)/C=C\c1cccc(-n2nnnc2SCc2ccccc2F)c1 — higher, 21.5%
- O=C(Nc1ccc(Br)cc1)c1ccccc1CC[N+](=O)[O-] — higher, 1.01%
- O=C(CCc1nnc2n(Cc3ccc(Cl)cc3)c(=O)c3ccccc3n12)N1CCN(c2ccccn2)CC1 — lower, -57%
- Cc1ccccc1-c1nn(-c2ccc(F)cc2F)cc1CNCCN(C)C — higher, -12.1%
- COc1ccc(C(CNC(=O)C(=O)Nc2ccc3c(c2)OCO3)N2CCN(C)CC2)cc1 (stereo not shown) — lower, -50.9%
- CCOc1cc(NC(=S)Nc2cccc(OC)c2)c(OCC)cc1NC(=O)c1ccc(C)cc1 — higher, 1.37%
- O=C(Nc1ccc(N2C(=O)C3CCCCC3C2=O)cc1Cl)c1cccs1 (stereo not shown) — higher, 27.1%
- O=C(NCc1ccc2c(c1)OCO2)c1c(Cl)cccc1Cl — higher, 8.6%
- CN1CC(=O)N(CC(=O)Nc2ccc(Cl)c(C(F)(F)F)c2)C1=O — higher, 8.97%
- CCN(CC)S(=O)(=O)c1cccc(C(=O)NCc2ccccc2)c1 — lower, -26.8%
- CC(=O)NCCCNc1ccc([N+](=O)[O-])cc1 — higher, -14.1%
- COCCNC(=O)CSc1cc(=O)n(C)c2cc(Cl)ccc12 — higher, 2.04%
- COc1cc(OC)cc(-n2nc(C(=O)N3CCC4(CC3)OCCO4)c3ccccc3c2=O)c1 — higher, 1.3%
- Cc1nc2nc(SCC(=O)Nc3cccc(F)c3)[nH]c2cc1Br — higher, 23.2%
- COC(=O)/C=c1/s/c(=C(/C#N)C(=O)NCc2ccccc2)n(-c2ccccc2)c1=O — higher, -12.6%
- O=C(COC(=O)/C=C/c1ccco1)Nc1ccc(F)cc1Cl — higher, 19.1%
- COc1ccc2[n-]c(S(=O)Cc3ncc(C)c(OC)c3C)nc2c1.COc1ccc2[n-]c(S(=O)Cc3ncc(C)c(OC)c3C)nc2c1.[Mg+2] (stereo not shown) [49665950] — higher, 16.3%
- O=C(CN1CCN(S(=O)(=O)c2ccc3ccccc3c2)CC1)Nc1ccc2c(c1)CCC2 — higher, 11.3%
- CCc1nnc(NC(=O)c2ccc(S(=O)(=O)N3CCCCCC3)cc2)s1 — higher, 6.4%
- COc1ccc(Br)cc1C1N2CC3(C)CN1CC(C)(C2)C3=O (stereo not shown) — higher, -1.65%
- CCOC(=O)c1ccc(NC(=S)N2CCCC2c2ccc(OC)c(OC)c2)cc1 (stereo not shown) — higher, 8.38%
- COc1ccc(CCN(C)Cc2ccc(F)cc2F)cc1OC — higher, -0.788%
- CCN1CCN(CCCNC(=O)C(=O)c2c(C)[nH]c3ccccc23)CC1 — higher, 3.67%
- C=CCN(c1ccc(F)cc1)S(=O)(=O)c1cc(C(=O)NC2CCC(O)CC2)ccc1Cl (stereo not shown) — lower, -39.4%
- Cc1ccc(-c2cc(C(=O)[O-])c3cc(Br)ccc3n2)s1.[K+] — higher, 22.1%
- COC(=O)c1c(NC(=O)c2cnccn2)sc2c1CCC2 — higher, 16.9%
- Cc1[nH]n(-c2ccc(F)cc2)c(=O)c1C=Nc1ccc(S(=O)(=O)N(C)C)cc1 — higher, 5.26%
- Nn1c(C2COc3ccccc3O2)n[nH]c1=S (stereo not shown) — higher, 7.74%
- Cc1cc(C)n(C2=NS(=O)(=O)c3ccccc32)n1 — higher, 13.9%
- Cc1cc2cc(CNC(=O)Nc3ccccc3)ccc2[nH]1 — higher, 6.64%
- CCCC(=O)NCCSC — higher, 12.8%
- CC(C)CNS(=O)(=O)c1ccc(CC(C)C)cc1 — higher, -2.9%
- C=CCN(c1ccccc1C(=O)O)S(=O)(=O)c1ccc(C)cc1 — higher, 18.6%
- COc1ccc(C[C@H]2CN3C(=NC[C@@H]3Cc3ccc(O)cc3)N2C[C@H](C)NC(=O)CCC2CCCCC2)cc1 — lower, -66.1%
- O=C(CCCc1ccccc1)NCCCN1CCOCC1 — higher, 6.76%
- Cl.O=C(CN1CCN(C(=O)c2cccs2)CC1)NC1CCCCC1 — higher, -1.7%
- CC(C)c1ccc(N2CCN(C(=O)c3ccccc3NC(=O)/C=C\C(=O)O)CC2)cc1 — higher, 5.25%
- Fc1ccc(CNCc2ccco2)cc1 — higher, 11.5%
- COc1cccc(C(=O)C2CCCN(Cc3ccccn3)C2)c1 (stereo not shown) — lower, -26%
- C=CCN1C(=O)/C(=C\c2cccs2)C(C(=O)OC)=C1C — higher, 9.05%
- Cn1c(=O)cc(OCC(=O)NCCCN2CCN(Cc3ccccc3)CC2)c2ccccc21 — lower, -17.8%
- CN1CCN(c2ccc(Cl)cc2NC(=O)c2cc(=O)[nH]c3ccccc23)CC1 — lower, -31.4%
- Cc1nnc(SC(C)C(=O)Nc2ccc(Cl)cn2)n1Cc1ccccc1 (stereo not shown) — lower, -17.3%
- CN1CCC(OC(=O)c2cccc(Cl)c2)CC1.Cl — higher, -8.64%
- COc1cc(OC)cc(C(=O)N[C@H](C(=O)NCc2ccc(F)cc2)C(C)C)c1 — higher, -2.58%
- CC(C)OC(=O)Cc1nc2sc(-c3ccccc3)cc2c(=O)[nH]1 — higher, 15.7%
- O=C(O)C(c1ccccc1)N1C(=O)c2cccc3cccc(c23)C1=O (stereo not shown) — higher, 5.72%
- O=C(/C=C/c1ccccc1)NNC(=O)c1cccnc1 — higher, 18.9%
- Cc1c(Cc2ccccc2)c(=O)oc2cc(OCC(=O)N[C@@H](Cc3ccccc3)C(=O)O)ccc12 — higher, -1.27%
- O=C(NCc1ccco1)c1ccc2ccccc2n1 — higher, 4.89%
- C=CCc1cc(C(=O)N2CCCCC2)ccc1O — higher, 15.1%
- Cc1ccc(S(=O)(=O)NCC(=O)N/N=C/c2ccc(Cl)cc2)cc1 — higher, -3.55%
- O=c1c2sccc2n(Cc2ccc(F)cc2)c(=O)n1-c1ccc(F)cc1 — higher, 8.94%
- CCn1cc(C(=O)NC2CCCCCC2)c(=O)c2ccc(C)nc21 — higher, -4.88%
- CN(C(=O)COC(=O)/C=C/c1cccc([N+](=O)[O-])c1)C1CCS(=O)(=O)C1 (stereo not shown) — higher, 18.7%
- COc1ccc(-c2csc(NC(=O)C3CCCCN3S(=O)(=O)c3ccccc3)n2)cc1 (stereo not shown) — higher, -1.79%
- CCC1CCCCN1CCCNC(=O)c1ccc2c(c1)N(Cc1c(F)cccc1Cl)C(=O)CS2 (stereo not shown) — higher, -7.86%
- CCN(CC)CCCN1C=C2C(=O)C(C)(OC(=O)C3CCCC3)C(=O)C=C2C=C1c1ccsc1 (stereo not shown) — lower, -34.3%
- C#CCOCCOCCOCCNc1nc(N2CCOCC2)nc(N2CCN(C(=O)[C@H]([C@@H](C)CC)n3cc(CCCC[NH3+])nn3)CC2)n1.[Cl-] — higher, 13.6%
- COc1cccc(CN2CCN(Cc3ccc(OC)c(OC)c3)CC2CCO)c1 (stereo not shown) — lower, -27.2%
- CCOc1cc(/C=N/NC(=O)c2c(-c3ccccc3)noc2C)ccc1O — higher, 3.14%
- NC(=O)C1CCN(/C=C2\C(=O)NC(=O)N(Cc3ccco3)C2=O)CC1 — higher, 6.74%
